Experimental data from the supplement of paper PMC8728848.
The other results are listed elsewhere or left out.

Columns and labels:
Assay in all cases: glycan array binding signal (z-score within array); higher = stronger binding
Conditions in all cases: glycan notation: IUPAC condensed, linker removed
[1] = target: Fuc(a1-3)[Gal(b1-4)]Glc6S
Method in brief: (§1)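 Glycan array data were curated from 3228 arrays in the Consortium for Functional Glycomics database and kept only where the protein sequence was available. Glycan names were converted to IUPAC-condensed notation, and columns mapping to the same glycan were averaged. The binding signal is a within-array Z-score, averaged across arrays of the same protein sequence at different concentrations or buffers and across linkers. Negative Z-scores can be read as non-binding.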

[2] = target: Fuc(a1-3)[Gal(b1-4)]GlcNAc
Method in brief: as §1

[3] = target: Fuc(a1-3)[Gal(b1-4)]GlcNAc(b1-2)Man
Method in brief: as §1

[4] = target: Fuc(a1-3)[Gal(b1-4)]GlcNAc(b1-2)Man(a1-3)[Fuc(a1-3)[Gal(b1-4)]GlcNAc(b1-2)Man(a1-6)]Man(b1-4)GlcNAc(b1-4)GlcNAc
Method in brief: as §1

[5] = target: Fuc(a1-3)[Gal(b1-4)]GlcNAc(b1-2)Man(a1-3)[Fuc(a1-3)[Gal(b1-4)]GlcNAc(b1-2)Man(a1-6)]Man(b1-4)GlcNAc(b1-4)[Fuc(a1-6)]GlcNAc
Method in brief: as §1

[6] = target: Fuc(a1-3)[Gal(b1-4)]GlcNAc(b1-3)Gal(b1-3)[Fuc(a1-4)]GlcNAc
Method in brief: as §1

[7] = target: Fuc(a1-3)[Gal(b1-4)]GlcNAc(b1-3)Gal(b1-4)[Fuc(a1-3)]GlcNAc
Method in brief: as §1

[8] = target: Fuc(a1-3)[Gal(b1-4)]GlcNAc(b1-3)Gal(b1-4)[Fuc(a1-3)]GlcNAc(b1-3)Gal(b1-4)[Fuc(a1-3)]GlcNAc
Method in brief: as §1

[9] = target: Fuc(a1-3)[Gal(b1-4)]GlcNAc(b1-3)GalNAc
Method in brief: as §1

[10] = target: Fuc(a1-3)[Gal(b1-4)]GlcNAc(b1-6)GalNAc
Method in brief: as §1

[11] = target: Fuc(a1-3)[Gal(b1-4)]GlcNAc(b1-6)[Gal(b1-3)GlcNAc(b1-3)]Gal(b1-4)Glc
Method in brief: as §1

[12] = target: Fuc(a1-3)[Gal(b1-4)]GlcNAc6S
Method in brief: as §1

[13] = target: Fuc(a1-3)[Gal3S(b1-4)]Glc
Method in brief: as §1

[14] = target: Fuc(a1-3)[Gal3S(b1-4)]GlcNAc
Method in brief: as §1

[15] = target: Fuc(a1-3)[Gal3S(b1-4)]GlcNAc6S
Method in brief: as §1

[16] = target: Fuc(a1-3)[GalNAc(b1-4)]GlcNAc
Method in brief: as §1

[17] = target: Fuc(a1-3)[GalNAc(b1-4)]GlcNAc6S
Method in brief: as §1

[18] = target: Fuc(a1-4)GlcNAc
Method in brief: as §1

[19] = target: Fuc(b1-3)GlcNAc
Method in brief: as §1

[20] = target: Gal(a1-2)Gal
Method in brief: as §1

[21] = target: Gal(a1-3)Gal
Method in brief: as §1

[22] = target: Gal(a1-3)Gal(b1-3)GlcNAc
Method in brief: as §1

[23] = target: Gal(a1-3)Gal(b1-3)GlcNAc(b1-2)Man
Method in brief: as §1

[24] = target: Gal(a1-3)Gal(b1-3)GlcNAc(b1-2)Man(a1-3)[Gal(a1-3)Gal(b1-3)GlcNAc(b1-2)Man(a1-6)]Man(b1-4)GlcNAc(b1-4)GlcNAc
Method in brief: as §1

[25] = target: Gal(a1-3)Gal(b1-3)GlcNAc(b1-3)GalNAc
Method in brief: as §1

[26] = target: Gal(a1-3)Gal(b1-3)GlcNAc(b1-6)GalNAc
Method in brief: as §1

[27] = target: Gal(a1-3)Gal(b1-3)[Fuc(a1-4)]GlcNAc(b1-2)Man(a1-3)[Gal(a1-3)Gal(b1-3)[Fuc(a1-4)]GlcNAc(b1-2)Man(a1-6)]Man(b1-4)GlcNAc(b1-4)GlcNAc
Method in brief: as §1

[28] = target: Gal(a1-3)Gal(b1-4)Glc
Method in brief: as §1

[29] = target: Gal(a1-3)Gal(b1-4)GlcNAc
Method in brief: as §1

[30] = target: Gal(a1-3)Gal(b1-4)GlcNAc(b1-2)Man
Method in brief: as §1

[31] = target: Gal(a1-3)Gal(b1-4)GlcNAc(b1-2)Man(a1-3)[Gal(a1-3)Gal(b1-4)GlcNAc(b1-2)Man(a1-6)]Man(b1-4)GlcNAc(b1-4)GlcNAc
Method in brief: as §1

[32] = target: Gal(a1-3)Gal(b1-4)GlcNAc(b1-3)GalNAc
Method in brief: as §1

[33] = target: Gal(a1-3)Gal(b1-4)GlcNAc(b1-6)GalNAc
Method in brief: as §1

[34] = target: Gal(a1-3)Gal(b1-4)[Fuc(a1-3)]GlcNAc
Method in brief: as §1

[35] = target: Gal(a1-3)Gal(b1-4)[Fuc(a1-3)]GlcNAc(b1-2)Man(a1-3)[Gal(a1-3)Gal(b1-4)[Fuc(a1-3)]GlcNAc(b1-2)Man(a1-6)]Man(b1-4)GlcNAc(b1-4)GlcNAc
Method in brief: as §1

[36] = target: Gal(a1-3)GalNAc
Method in brief: as §1

[37] = target: Gal(a1-3)[Gal(a1-4)]Gal(b1-4)GlcNAc
Method in brief: as §1

[38] = target: Gal(a1-4)Gal(b1-3)GlcNAc(b1-2)Man(a1-3)[Gal(a1-4)Gal(b1-3)GlcNAc(b1-2)Man(a1-6)]Man(b1-4)GlcNAc(b1-4)GlcNAc
Method in brief: as §1

[39] = target: Gal(a1-4)Gal(b1-4)Glc
Method in brief: as §1

[40] = target: Gal(a1-4)Gal(b1-4)GlcNAc
Method in brief: as §1

[41] = target: Gal(a1-4)Gal(b1-4)GlcNAc(b1-2)Man(a1-3)[Gal(a1-4)Gal(b1-4)GlcNAc(b1-2)Man(a1-6)]Man(b1-4)GlcNAc(b1-4)GlcNAc
Method in brief: as §1

[42] = target: Gal(a1-4)Gal(b1-4)GlcNAc(b1-3)Gal(b1-4)Glc
Method in brief: as §1

[43] = target: Gal(a1-4)GlcNAc
Method in brief: as §1

[44] = target: Gal(a1-6)Glc
Method in brief: as §1

[45] = target: Gal(b1-2)Gal
Method in brief: as §1

B1: Clrb (Mus musculus) (protein)
chain: ITGATKTEQIPVNKTYAACPQNWIGVENKCFYFSEYPSNWTFAQAFCMAQEAQLARFDNQDELNFLMRYKANFDSWIGLHRESSEHPWKWTDNTEYNNTIPIRGEERFAYLNNNGISSTRIYSLRMWICSKLNSYSLHCQTPFFPSGTKHHHHHHHHG
[1]
  glycan array binding signal (z-score): -0.518
[2]
  glycan array binding signal (z-score): -0.373
[3]
  glycan array binding signal (z-score): -0.25
[4]
  glycan array binding signal (z-score): -0.413
[5]
  glycan array binding signal (z-score): -0.437
[6]
  glycan array binding signal (z-score): -0.381
[7]
  glycan array binding signal (z-score): -0.446
[8]
  glycan array binding signal (z-score): -0.41
[9]
  glycan array binding signal (z-score): -0.299
[10]
  glycan array binding signal (z-score): -0.162
[11]
  glycan array binding signal (z-score): -0.509
[12]
  glycan array binding signal (z-score): -0.295
[13]
  glycan array binding signal (z-score): -0.148
[14]
  glycan array binding signal (z-score): -0.326
[15]
  glycan array binding signal (z-score): -0.277
[16]
  glycan array binding signal (z-score): 1.85
[17]
  glycan array binding signal (z-score): -0.315
[18]
  glycan array binding signal (z-score): -0.357
[19]
  glycan array binding signal (z-score): -0.294
[20]
  glycan array binding signal (z-score): -0.306
[21]
  glycan array binding signal (z-score): -0.295
[22]
  glycan array binding signal (z-score): -0.098
[23]
  glycan array binding signal (z-score): -0.331
[24]
  glycan array binding signal (z-score): -0.454
[25]
  glycan array binding signal (z-score): -0.437
[26]
  glycan array binding signal (z-score): -0.328
[27]
  glycan array binding signal (z-score): -0.064
[28]
  glycan array binding signal (z-score): -0.317
[29]
  glycan array binding signal (z-score): -0.349
[30]
  glycan array binding signal (z-score): -0.442
[31]
  glycan array binding signal (z-score): -0.409
[32]
  glycan array binding signal (z-score): -0.505
[33]
  glycan array binding signal (z-score): -0.486
[34]
  glycan array binding signal (z-score): 0.12
[35]
  glycan array binding signal (z-score): -0.549
[36]
  glycan array binding signal (z-score): -0.059
[37]
  glycan array binding signal (z-score): -0.144
[38]
  glycan array binding signal (z-score): -0.293
[39]
  glycan array binding signal (z-score): -0.22
[40]
  glycan array binding signal (z-score): -0.1
[41]
  glycan array binding signal (z-score): -0.426
[42]
  glycan array binding signal (z-score): -0.419
[43]
  glycan array binding signal (z-score): -0.362
[44]
  glycan array binding signal (z-score): -0.176
[45]
  glycan array binding signal (z-score): -0.244
